Among all 44,000 compounds or so, about 340 (0.77%) were called active. Roughly 5% stayed inconclusive and do not appear here. The call rests on the fitted dose curve; in most records, active means well fitted inhibition curve with a large enough effect; inconclusive means small, poorly fitted or top-dose-only effect; inactive means flat fitted curve, though single readings scatter. The list shows a part of the results.
experiment: Acumen qHTS Assay for Inhibitors of the mTORC1 Signaling Pathway in MEF (Tsc2-/-, p53-/-) Cells: Sytravon; details: phospho-rpS6 immunofluorescence/PI, 24 h; series mostly up to 38.3 µM; activity change, negative = inhibition: at the top concentration;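 further: plate controls were DMSO for no effect and rapamycin for full effect; nearly all actives have a fitted effect of over 50% in size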
Summary of the method: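 Tsc2-/-, p53-/- MEFs (empty-vector stable line) in DMEM + 10% FBS were treated with compounds 24 h at 37 degree Celsius, fixed, and immunostained for phospho-rpS6 (Alexa-488) with propidium iodide counterstain. Laser-scanning cytometry gave % positive cells, normalized against 7.5 nM rapamycin and DMSO.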

Activity change, negative = inhibition, inactive:
COc1ccc(-c2cc(C(F)(F)F)nc(NCCc3ccccc3)n2)cc1 0%, COC(=O)c1c(SCC(=O)Nc2cc(F)ccc2F)[nH]c2ccc(C)cc2c1=O 2.34%, O=C(NCCc1ccccc1)c1cc2sccc2n1Cc1ccc(F)cc1 -15%, Cc1c(-c2ccc(Cl)cc2)c(=O)oc2c(CN3CCOCC3)c(O)ccc12 0%, COC(=O)c1cccc(CN2C(=O)SC(Nc3ccc(Br)cc3)C2=O)c1 (stereo not given) -2.38%, Cc1ccc(NC(=O)CSc2nc3ccc(NC(=O)c4ccco4)cc3s2)c(C)c1 -2.5%, CSc1cccc(NC(=O)C(c2ccccc2)N2Cc3ccccc3C2=O)c1 (stereo not given) -0.0361%, CNC(=O)c1c(NC(=O)c2ccc(S(=O)(=O)N3CCCC(C)C3)cc2)sc2c1CCC2 (stereo not given) -3.31%, CCCCOc1ccc(C(=O)Nc2onc3c2CCCC3)cc1 -7.79%, COC(=O)C1CCN(C(c2ccccc2Cl)c2sc3nc(-c4ccco4)nn3c2O)CC1 (stereo not given) -1.2%, CCOC(=O)CN1C(C(=O)c2ccccc2)=C(OC(=O)c2ccccc2)c2ccccc2S1(=O)=O -12.7%, Cc1cc(C)cc(NC(=O)Nc2cccs2)c1 1.38%, Cc1ccc(NC(=O)C2CCCN(S(=O)(=O)c3ccc(F)cc3)C2)cc1 (stereo not given) 2.36%, Cc1ccc(C)c(NC(=O)Cn2cnc3nc4c(cc3c2=O)CCCC4)c1 3.04%, COc1ccccc1N1CCN(C(=O)C2CCCN(S(=O)(=O)c3ccc4c(c3)oc(=O)n4C)C2)CC1 (stereo not given) -13.2%, CCOC(=O)c1cccc(NC(=O)c2ccc3snnc3c2)c1 -3.52%, CCc1ccc(-n2c(N3CCN(c4cccc(C)c4C)CC3)nc3ccccc3c2=O)cc1 -3.33%, COC(=O)c1sccc1S(=O)(=O)N(CC(=O)NCc1ccccc1)c1ccc(C)cc1 -2.99%, Cc1ccc(Nc2nc(N)nc(N)c2S(=O)(=O)c2ccccc2)cc1 -22.4%, COc1ccccc1C(=O)Nc1nc(-c2ccc(Br)cc2)ns1 -4.11%, Cc1nc2ccn(Cc3cccnc3)c(=O)c2cc1C(=O)N1CCN(c2ccccc2)CC1 8.35%, CC(=O)Nc1ccccc1-c1nc2ccccc2n(C(C)C(=O)c2ccc(C)c(C)c2)c1=O (stereo not given) -20.3%, CCOc1ccc(CC(=O)NC2CC(=O)N(c3ccc4c(c3)OCCO4)C2)cc1 (stereo not given) -0.708%, CCN(c1ccccc1)S(=O)(=O)c1nnc(NC(=O)COc2ccccc2F)s1 -27.3%, COc1cc(C2C(=O)N(C3CCC(C)CC3)CC(=O)N2CCc2ccc(Cl)cc2)ccc1OC(C)C (stereo not given) 2.01%, Cc1ccc(NC(=O)CN(C)S(=O)(=O)c2cccc3nsnc23)c(C)c1 0.686%, COc1ccc(-c2[nH]ncc2C(=O)NCc2ccccc2OC)cc1 -16.9%, Cc1ccc(Nc2cc(-c3ccccc3)nc(C)n2)cc1 -2.1%, CCSC1=NC2(CCN(C(=O)NC3CCCCC3)CC2)N=C1c1ccc(C)c(C)c1 1.88%, Cc1ccc(NC(=O)[C@H](Cc2ccccc2)N2Cc3ccccc3C2=O)cc1 -0.387%, Cc1noc(C)c1S(=O)(=O)NCCc1csc2nc(-c3ccc(F)cc3)nn12 3.38%, CCOC(=O)c1c(NC(=O)c2cc3ccccc3c(=O)o2)sc2c1CCCC2 3.86%, CCCN(CCC)CCNC(=O)c1cc(Sc2ccc(Cl)cc2)nc2ccccc12 -24.1%, CCc1cccc(NC(=O)c2ccc3c(=O)n4nc(Nc5ccccc5OC)sc4nc3c2)c1 -8.81%, COc1nc(Oc2ccc(=O)n(-c3ccccc3)n2)nc(N(C)C)n1 7.01%, COc1ccc(OC)c(NC(=O)CCc2c(C)nc3c(-c4ccccc4)c(C)nn3c2C)c1 -9.38%, Cc1cccc(CSCCNC(=O)CN(c2ccccc2)S(=O)(=O)N(C)C)c1 1.86%, Cc1ccc(S(=O)(=O)c2cn(CC(=O)Nc3ccc4c(c3)OCO4)c3ccc(F)cc3c2=O)cc1 0.0745%, Cc1cccc(Nc2nc3ccccc3n3c(N)nnc23)c1 -13.2%, Cc1cc2n(n1)CCCN2C(=O)Nc1cccc(C)c1C 4.64%, Cc1ccc(Cn2c(=O)c3cccnc3n(Cc3ccc(F)cc3)c2=O)cc1 -6.41%, COc1cccc(N2CCN(c3ncc4c(n3)CCN(Cc3ccc(Br)cc3)C4)CC2)c1 0%, CCc1ccc2oc(C(=O)Nc3nc(-c4ccccc4)ns3)c(C)c2c1 -3.24%, Cc1cccc(CNC(=O)c2ccc(Cn3c(SCc4ccccc4)nc4cccnc43)cc2)c1 -14.4%, Cc1c(C(=O)N(C)C)sc2c1c(=O)n(-c1ccc(F)cc1)c(=O)n2CC(=O)N(C)c1ccccc1 -6.59%, COc1ccccc1CNC(=O)CCC1N=C2c3ccccc3N=C(SCC(=O)NCCc3ccccc3)N2C1=O (stereo not given) -0.892%, Cc1cc2oc(C(=O)Nc3ccc(S(=O)(=O)Nc4onc(C)c4C)cc3)cc(=O)c2cc1C -0.927%, Cc1ccc(C)c(NC(=O)Cn2c(=O)oc3cc(S(=O)(=O)NCc4ccccc4)ccc32)c1 -7.55%, COc1ccc(Cl)cc1NC(=O)c1nc(S(C)(=O)=O)ncc1N(Cc1ccc(C)cc1)Cc1ccco1 -5.59%, CCOc1ccc(-n2c(SC(C)C(=O)OC)nc3c([nH]c4ccccc43)c2=O)cc1 (stereo not given) -4.08%, O=C(CSc1nc(=O)[nH]c2c1CCCC2)NCc1ccc(Cl)cc1 0.877%, CCOC(=O)c1c(NC(=O)/C=C/c2ccc(OC)cc2)sc2c1CCC(C)C2 (stereo not given) -1.64%, Cc1ccccc1C(=O)Nc1sc2c(c1C(=O)N1CCC(C)CC1)CCCC2 -17%, COc1ccc(NC(=O)Cn2c(=O)n(CC3CCCO3)c(=O)c3ccccc32)cc1 (stereo not given) 3.82%, CCCCCCNc1ncnc2c1sc1nc(N3CCOCC3)c3c(c12)CCCC3 -1.62%, CCCCSCCCNC(=O)c1cc(-c2cccnc2)nc2ccc(S(=O)(=O)N3CCC(C)CC3)cc12 -4.22%, O=C(Nc1cccc(C(=O)N2CCN(c3ccc(F)cc3)CC2)c1)c1nsc2ccccc12 -0.867%, CCCN(C(=O)c1nn(-c2ccc(C)cc2)c(=O)c2c1c1ccccc1n2C)c1ccccc1C 2.33%, Cc1oc2ccc(O)c(CN3CCN(Cc4ccccc4)CC3)c2c1C(=O)Nc1cccc(Cl)c1C 3.42%, O=C(Nc1ccc(Oc2ccccc2)cc1)C1CCN(S(=O)(=O)c2ccccc2)CC1 -24.3%, COc1ccccc1/C=C/c1nc(C#N)c(NC(C)c2ccccc2)o1 (stereo not given) -4.1%, CC(=O)c1ccc(N2CCN(C(=O)Cn3ncc4c3-c3ccccc3OC4)CC2)cc1 -11.2%, CCOc1ccc(NC(=O)c2cnn3c(C(F)F)cc(-c4ccc(C)cc4)nc23)cc1 -2.75%, Cc1c(Cl)cccc1NC(=O)CN1C(=O)CSc2ccc(S(=O)(=O)N3CCCC3)cc21 -7.35%, CC(=O)c1cc(-c2ccc(F)cc2)n(CCC(=O)NCc2ccc(C)cc2)c1C -3.37%, Cc1ccc(NC(=O)CN2CCN(C3CCCCC3)C(=O)C2=O)cc1 0%, O=c1cc(COc2cccc(C(F)(F)F)c2)nc2sc3c(n12)CCCC3 0.961%, Cc1ccc(-n2ncc(C(=O)N3CCN(C4CCCCC4)CC3)c2C2CCN(C(=O)OC(C)(C)C)CC2)cc1 -2.61%, CC(C)NC(=O)c1nn(C)c2c1CS(=O)(=O)c1ccccc1-2 5.79%, COC(=O)c1cc(Cl)ccc1NC(=O)Cn1c(C)cc(C)c(C#N)c1=O -15.3%, CC(=O)Nc1ccc2nc(SCc3ccccc3)sc2c1 -0.735%, CCOc1ccccc1CN(CCc1ccc2c(c1)OCO2)Cc1cc(OC)c(OC)cc1OC 1%, COc1ccccc1CNc1nc(-c2ccco2)nn1S(=O)(=O)c1ccc(C)cc1 0%, Clc1ccc(CN2CCc3nc(Nc4ccc5c(c4)OCCO5)ncc3C2)cc1 0%, CCn1c(=O)c2sccc2n2c(CCCC(=O)N3CCN(c4ccccc4OC)CC3)nnc12 3.22%, Cc1ccccc1C(=O)NCc1ccc2c(c1)CCN2C(=O)c1ccccc1 -5.99%, CCOC(=O)N1CCC(NC(=O)c2cnn(-c3cccc(C)c3)c2C2CCN(C(=O)OC(C)(C)C)CC2)CC1 2.82%, COc1ccc(CNC(=O)C(=O)NCC(c2cccs2)S(=O)(=O)c2ccc(C)cc2)cc1 (stereo not given) -3%, O=C(c1ccc(F)cc1)N1c2ncnn2C2(CCCCC2)[C@@H]2CCCC[C@@H]21 -2.96%, Cc1ccc(-c2nsc(NC(=O)c3oc4cc(C)c(Cl)cc4c3C)n2)cc1 -0.501%, CCn1c(SCC(=O)Nc2cccc(Cl)c2)nnc1-c1nonc1NC(C)=O -7.58%, Cc1cccc(NS(=O)(=O)c2nnc(NC(=O)C3CCCCC3)s2)c1 -2.92%, COc1cc2[nH]c(=O)n(Cc3ccc(C(=O)N4CCN(c5cccc(C)c5C)CC4)cc3)c(=O)c2cc1OC -4.65%, CCOC(=O)c1ccc(NC(=O)c2ccc3c(c2)CCN3S(=O)(=O)c2ccc(Cl)cc2)cc1 -4.48%, COc1ccc(CNC(=O)c2cc(Nc3ccc(OC)cc3OC)nc3ccccc23)cc1 2.93%, Cc1ccc(-n2nc(CO)c(C(=O)NCCO)n2)cc1 1.97%, COc1ccc(CCNC(=O)Cn2nnc(-c3cccc(C(F)(F)F)c3)n2)cc1OC 3.56%, CC(CNC(=O)c1ccc(Cn2c(SCc3ccccc3)nc3cccnc32)cc1)c1ccccc1 (stereo not given) -10.6%, COc1ccc2oc(=O)cc(CN3CCN(C(=O)c4ccccc4)CC3)c2c1 3.8%, O=C(Nc1ccc(O)c(-c2nc3ccccc3o2)c1)c1cccs1 3.6%, CCOc1ccc(NC(=O)c2oc3ccccc3c2NC(=O)Cc2ccc(OC)c(OC)c2)cc1 -2.72%, Cc1ccc(C)c(CN2C(=O)c3ccccc3Sc3ccc(C(=O)NCCCOC(C)C)cc32)c1 -0.694%, CCOC(=O)c1ccc(N2C(=O)c3n[nH]c(C)c3C2c2ccc(C(C)C)cc2)cc1 (stereo not given) 8.47%, O=C(CSc1n[nH]c(-c2ccccc2Cl)n1)N1CCN(c2ccc(F)cc2)CC1 -8.7%, CC(C)c1nn2c(=O)cc(COC(=O)c3ccc(NC(=O)c4ccccc4Cl)cc3)nc2s1 0%

Source: PubChem BioAssay AID493208 (National Center for Advancing Translational Sciences (NCATS), 2011)
